Measured values published in PubChem BioAssay (NCI).
Where “and” joins values, the source holds several entries; their conditions need not be identical. Equal entries are not always repeated.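 Growth conditions: 96-well plates. Treatment: test compound, 48 hours, 5 concentrations. Analysis: linear interpolation between bracketing concentrations; unreached endpoints set to highest concentration. Here, GI50 denotes the concentration required for 50% inhibition of growth. TGI is the concentration that stops growth completely.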

Test system: NCI-H322M lung
Assay: NCI-60 cell line screen, 48 h

| Structure (SMILES) | TGI | GI50 |
| --- | --- | --- |
| COc1cc(COC(=O)N(C)[C@@H](Cc2ccccc2)C(=O)O)c([N+](=O)[O-])cc1OC | > 100 µM |  |
| CC(C)(C)c1cc(C(C)(C)C)c2sc(=O)oc2c1O | 29.8 µM |  |
| CC(CSc1nc2c(c(=N)n1-c1ccccc1)c(=S)n(-c1ccccc1)c(=S)n2-c1ccccc1)CN(C)C (stereo not given) | 4.19 µM |  |
| C=C(C)C1CCC2(C)C1CCC1(C)C2CCC2C3(C)C4OC(OC4=O)C(C)(C)C3CCC21C (stereo not given) | > 100 µM |  |
| COc1ccc(C=C2C(C)=NN(c3cccc(Cl)c3)C23C(Cl)C(=O)N3c2nc3ccccc3s2)cc1 (stereo not given) | > 100 µM |  |
| O=C(/C=C/c1ccccn1)c1ccccc1 | 32.2 µM | 15.6 µM |
| N=C(N)c1ccc(N=Nc2c(O)c(C(=O)Nc3ccccc3)cc3ccccc23)cc1 | > 100 µM |  |
| Cn1cc(C2=C(c3cccc([N+](=O)[O-])c3)C(=O)NC2=O)c2ccccc21 | > 25 µM | 11.5 µM |
| CC1(O)CC2C(CC1SCc1ccccc1)C2(C)C (stereo not given) | > 100 µM and 31.5 µM | 40.8 µM and 17.3 µM |
| O=c1[nH]c2ccccc2c(=O)n1/N=C\c1ccccc1O | > 100 µM |  |
| CCCCCCCC(=O)OC[n+]1cccc(-c2c(COC(=O)NC(C)C)c(COC(=O)NC(C)C)c3n2CCC3)c1 | > 100 µM |  |
| CC1(C)N=C(N)N=C(N)N1c1ccc(CCCCCCc2ccc(S(=O)(=O)F)cc2)cc1 | 17.2 µM |  |
| O=C(Cn1ccnc1[N+](=O)[O-])NCc1ccc(F)cc1 | > 100 µM |  |
| CC(=O)CCN1CC2CN=NC2(C#N)C1 (stereo not given) | > 100 µM |  |
| CC(=O)N1CN2C(=O)CCC2c2cc(C)ccc21 (stereo not given) | > 100 µM |  |
| COc1cc(-c2ccc[nH]2)[nH]c1/C=C1\N=C(C)C(C(=O)NC(C)C)=C1C | 27.1 µM | 11.7 µM |
| COc1cc(C2C3=C(NC(=O)C2C#N)c2ccc4ccccc4c2OCC3)cc(OC)c1OC (stereo not given) | > 100 µM |  |
| NC(=O)C1C(=O)Oc2cccnc21 (stereo not given) | > 100 µM |  |
| CC1(c2ccc(Cl)cc2)c2ccccc2C(=O)N1CCCN1C(=O)c2ccccc2C1=O (stereo not given) | > 100 µM |  |
| C[N+](C)([O-])C12CC3CC(CC(C3)C1)C2 | > 100 µM |  |
| c1ccc(CN2CCC(CNc3ncnc4ccccc34)C2)cc1 (stereo not given) | > 100 µM |  |
| COC1CCC(OS(C)(=O)=O)C(C)O1 (stereo not given) | > 10 µM |  |
| c1ccc2[nH]c(-c3cscn3)nc2c1 | > 100 µM |  |
| Cn1c(COC(=O)NC2CCCCC2)c(COC(=O)NC2CCCCC2)c2ccc3ccccc3c21 | > 100 µM |  |
| C=C(c1ccc(C(=O)NCCCn2ccnc2)cc1)c1cc2c(cc1C)C(C)(C)CCC2(C)C | > 66 µM | 8.47 µM |

| Structure (SMILES) | TGI | GI50 |
| --- | --- | --- |
| CCCCCCCCCCCCCCCCOC[C@H](COC(c1ccccc1)(c1ccccc1)c1ccccc1)O[P+](=S)OC (stereo not given in full) | > 100 µM |  |
| COc1cc([C@H]2c3cc4c(cc3[C@H](NCc3ccc(F)cc3)C3COC(=O)[C@H]32)OCO4)cc(OC)c1O (stereo not given in full) | > 100 µM |  |
| O=C(Cc1csc2nc(-c3ccc(Br)cc3)cn12)N/N=C/c1ccccc1O | 10.7 µM | 2.14 µM |
| C[C@]12CC[C@H]3[C@@H](CCC4=C/C(=N/OCCN5CCCCC5)CC[C@@]43C)[C@@H]1CC[C@@H]2O | 51 µM |  |
| COc1cc2c(cc1OC)C(C1CC1)ON(C)CC2 (stereo not given) | > 100 µM |  |
| COC(=O)c1sc2c(Cl)c(Cl)sc2c1Cl | > 100 µM |  |
| CC1OC23CCCCC2C(C#N)(C#N)C1(C#N)C(=N)O3 (stereo not given) | > 100 µM |  |
| CCCCCCCCCCCCCCCC[N+](C)(C)CCl | 30.6 µM |  |
| O=C([CH-]C(=O)c1ccccc1)c1ccccc1.[CH2-]C.[CH2-]C.[Tl+3] | > 100 µM | 22.7 µM |
| CCOC(=O)C(NC(=O)c1ccccc1)(Nc1ccc(S(=O)(=O)Nc2cc(C)on2)cc1)C(F)(F)F (stereo not given) | > 100 µM |  |
| O=C(NCCNC1=CC(=O)c2nc3ccccc3c3ccnc1c23)c1cnccn1 | > 100 µM | 27.9 µM |
| COc1ccc(Nc2nc(N)c(C(=O)c3ccco3)s2)cc1 | > 100 µM |  |
| O=C(NCCOC(=O)CCCCCCCCC(=O)OCCNC(=O)NC(=O)c1cn(Cc2ccccc2)c(=O)[nH]c1=O)NC(=O)c1cn(Cc2ccccc2)c(=O)[nH]c1=O | > 100 µM |  |
| O=c1ccc(=O)c2c1c1[nH]c3ccccc3c1c1c(=O)c3ccccc3c(=O)c21 | > 10 µM |  |
| O=C(O)C1C2OC(C(Br)C2Br)C1C(=O)O (stereo not given) | > 100 µM |  |
| c1ccc2c(c1)ccc1cc3cc(NCCCCNc4ccc5nc6c(ccc7ccccc76)cc5c4)ccc3nc12 | 3.2 µM |  |
| O=C(O)c1cc2ccc(Cl)cc2c(O)c1C1=CCCCC1 | > 100 µM |  |
| C#CCN(CCCOc1ccc(Cl)cc1Cl)CCCSC(=O)CCCCCN1/C(=C\C=C2/CCCC(/C=C/C3=[N+](CCCCCC(=O)[O-])c4ccccc4C3(C)C)=C2Cl)C(C)(C)c2ccccc21 | 10.9 µM | 3.01 µM |
| Cc1cc(S(=O)(=O)NC2=NCc3c(F)cccc3N2)c(S)cc1Cl | > 100 µM |  |
| O=C(Nc1c(Cl)cc([N+](=O)[O-])cc1Cl)C(=O)C(C(=O)c1ccncc1)C1OC(=O)c2ccccc21 (stereo not given) | > 100 µM |  |
| CC1CC(C)(C)CC(OCCN2CCCCC2)(c2ccccc2)C1 (stereo not given) | 22.6 µM |  |
| COc1cc2c(cc1OC)C(Sc1ccc(Cl)cc1)c1c(nc(N)c(C#N)c1N)O2 (stereo not given) | 2.89 µM | 1.52 µM |
| Cc1cc(C)n(C(=CC(=O)C(Cl)Cl)n2nc(C)cc2C)n1 | 28 µM |  |
| Nc1nc2c(ncn2C2OC(CO)C(O)C2O)c(=O)[nH]1 (stereo not given) | > 100 µM and 235 µM | > 100 µM |
